Laboratory results taken from the supplement of paper PMC8728848.
This is one part of the list.

Tests used:
Test in all cases: glycan array binding signal (z-score within array); higher = stronger binding
Conditions in all cases: glycan notation: IUPAC condensed, linker removed; mutation: E347A
GalNAc(b1-3)GalNAc = molecular target: GalNAc(b1-3)GalNAc
Summary of the method: (§1)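 The binding signal is a Z-score computed within each array. Data were drawn from 3228 arrays in the Consortium for Functional Glycomics database, restricted to those with a known protein sequence. Scores were averaged over arrays of the same protein sequence at different concentrations or buffers, and over linkers, and negative values can be taken as non-binding.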

GalNAc(b1-4)GlcNAc = molecular target: GalNAc(b1-4)GlcNAc
Summary of the method: as §1

Glc(a1-4)Glc = molecular target: Glc(a1-4)Glc
Summary of the method: as §1

Glc(a1-6)Glc(a1-6)Glc = molecular target: Glc(a1-6)Glc(a1-6)Glc
Summary of the method: as §1

Glc(b1-4)Glc = molecular target: Glc(b1-4)Glc
Summary of the method: as §1

Glc(b1-6)Glc = molecular target: Glc(b1-6)Glc
Summary of the method: as §1

GlcA(b1-3)Gal = molecular target: GlcA(b1-3)Gal
Summary of the method: as §1

GlcA(b1-3)GlcNAc = molecular target: GlcA(b1-3)GlcNAc
Summary of the method: as §1

GlcA(b1-6)Gal = molecular target: GlcA(b1-6)Gal
Summary of the method: as §1

[1] = molecular target: GlcNAc(a1-3)Gal(b1-4)GlcNAc
Summary of the method: as §1

[2] = molecular target: GlcNAc(a1-6)Gal(b1-4)GlcNAc
Summary of the method: as §1

[3] = molecular target: GlcNAc(b1-2)Gal(b1-3)GalNAc
Summary of the method: as §1

[4] = molecular target: GlcNAc(b1-2)Man(a1-3)[GlcNAc(b1-2)Man(a1-6)]Man(b1-4)GlcNAc(b1-4)GlcNAc
Summary of the method: as §1

GlcNAc(b1-3)Gal = molecular target: GlcNAc(b1-3)Gal
Summary of the method: as §1

[5] = molecular target: GlcNAc(b1-3)Gal(b1-3)GalNAc
Summary of the method: as §1

GlcNAc(b1-3)Gal(b1-4)Glc = molecular target: GlcNAc(b1-3)Gal(b1-4)Glc
Summary of the method: as §1

[6] = molecular target: GlcNAc(b1-3)Gal(b1-4)GlcNAc
Summary of the method: as §1

[7] = molecular target: GlcNAc(b1-3)Gal(b1-4)GlcNAc(b1-3)Gal(b1-4)GlcNAc
Summary of the method: as §1

GlcNAc(b1-3)GalNAc = molecular target: GlcNAc(b1-3)GalNAc
Summary of the method: as §1

GlcNAc(b1-3)Man = molecular target: GlcNAc(b1-3)Man
Summary of the method: as §1

[8] = molecular target: GlcNAc(b1-3)[GlcNAc(b1-4)][GlcNAc(b1-6)]GlcNAc
Summary of the method: as §1

[9] = molecular target: GlcNAc(b1-3)[GlcNAc(b1-6)]Gal(b1-4)GlcNAc
Summary of the method: as §1

[10] = molecular target: GlcNAc(b1-3)[GlcNAc(b1-6)]GalNAc
Summary of the method: as §1

[11] = molecular target: GlcNAc(b1-4)Gal(b1-4)GlcNAc
Summary of the method: as §1

GlcNAc(b1-4)GlcNAc = molecular target: GlcNAc(b1-4)GlcNAc
Summary of the method: as §1

[12] = molecular target: GlcNAc(b1-4)GlcNAc(b1-4)GlcNAc
Summary of the method: as §1

[13] = molecular target: GlcNAc(b1-4)GlcNAc(b1-4)GlcNAc(b1-4)GlcNAc(b1-4)GlcNAc
Summary of the method: as §1

[14] = molecular target: GlcNAc(b1-4)GlcNAc(b1-4)GlcNAc(b1-4)GlcNAc(b1-4)GlcNAc(b1-4)GlcNAc
Summary of the method: as §1

[15] = molecular target: GlcNAc(b1-4)[GlcNAc(b1-6)]GalNAc
Summary of the method: as §1

[16] = molecular target: GlcNAc(b1-6)Gal(b1-4)GlcNAc
Summary of the method: as §1

GlcNAc(b1-6)GalNAc = molecular target: GlcNAc(b1-6)GalNAc
Summary of the method: as §1

GlcNAc3Prop(b1-4)GlcNAc = molecular target: GlcNAc3Prop(b1-4)GlcNAc
Summary of the method: as §1

Kdn(a2-3)Gal(b1-3)GlcNAc = molecular target: Kdn(a2-3)Gal(b1-3)GlcNAc
Summary of the method: as §1

Kdn(a2-3)Gal(b1-4)GlcNAc = molecular target: Kdn(a2-3)Gal(b1-4)GlcNAc
Summary of the method: as §1

[17] = molecular target: Man(a1-2)Man(a1-2)Man(a1-3)Man
Summary of the method: as §1

[18] = molecular target: Man(a1-2)Man(a1-2)Man(a1-6)[Man(a1-3)]Man
Summary of the method: as §1

Man(a1-2)Man(a1-3)Man = molecular target: Man(a1-2)Man(a1-3)Man
Summary of the method: as §1

[19] = molecular target: Man(a1-2)Man(a1-3)[Man(a1-2)Man(a1-6)]Man
Summary of the method: as §1

[20] = molecular target: Man(a1-2)Man(a1-3)[Man(a1-2)Man(a1-6)]Man(a1-6)[Man(a1-2)Man(a1-2)Man(a1-3)]Man
Summary of the method: as §1

[21] = molecular target: Man(a1-2)Man(a1-3)[Man(a1-2)Man(a1-6)]Man(a1-6)[Man(a1-2)Man(a1-2)Man(a1-3)]Man(b1-4)GlcNAc(b1-4)GlcNAc
Summary of the method: as §1

[22] = molecular target: Man(a1-2)Man(a1-3)[Man(a1-6)]Man(a1-6)[Man(a1-2)Man(a1-3)]Man(b1-4)GlcNAc(b1-4)GlcNAc
Summary of the method: as §1

[23] = molecular target: Man(a1-2)Man(a1-6)[Man(a1-3)]Man(a1-6)[Man(a1-2)Man(a1-2)Man(a1-3)]Man
Summary of the method: as §1

[24] = molecular target: Man(a1-2)Man(a1-6)[Man(a1-3)]Man(a1-6)[Man(a1-2)Man(a1-2)Man(a1-3)]Man(b1-4)GlcNAc(b1-4)GlcNAc
Summary of the method: as §1

Man(a1-3)[Man(a1-6)]Man = molecular target: Man(a1-3)[Man(a1-6)]Man
Summary of the method: as §1

[25] = molecular target: Man(a1-3)[Man(a1-6)]Man(a1-6)[Man(a1-2)Man(a1-3)]Man(b1-4)GlcNAc(b1-4)GlcNAc
Summary of the method: as §1

[26] = molecular target: Man(a1-3)[Man(a1-6)]Man(a1-6)[Man(a1-3)]Man
Summary of the method: as §1

[27] = molecular target: Man(a1-3)[Man(a1-6)]Man(a1-6)[Man(a1-3)]Man(b1-4)GlcNAc(b1-4)GlcNAc
Summary of the method: as §1

[28] = molecular target: Man(a1-3)[Man(a1-6)]Man(b1-4)GlcNAc(b1-4)GlcNAc
Summary of the method: as §1

Man(a1-6)Man = molecular target: Man(a1-6)Man
Summary of the method: as §1

Man(b1-4)GlcNAc = molecular target: Man(b1-4)GlcNAc
Summary of the method: as §1

Neu5Ac(a2-3)Gal = molecular target: Neu5Ac(a2-3)Gal
Summary of the method: as §1

[29] = molecular target: Neu5Ac(a2-3)Gal(b1-3)GalNAc
Summary of the method: as §1

[30] = molecular target: Neu5Ac(a2-3)Gal(b1-3)GalNAc(b1-3)Gal(a1-4)Gal(b1-4)Glc
Summary of the method: as §1

[31] = molecular target: Neu5Ac(a2-3)Gal(b1-3)GalNAc(b1-3)Gal(b1-4)GlcNAc
Summary of the method: as §1

[32] = molecular target: Neu5Ac(a2-3)Gal(b1-3)GalNAc(b1-4)[Neu5Ac(a2-3)]Gal(b1-4)Glc
Summary of the method: as §1

[33] = molecular target: Neu5Ac(a2-3)Gal(b1-3)GalNAc6S
Summary of the method: as §1

[34] = molecular target: Neu5Ac(a2-3)Gal(b1-3)GlcNAc
Summary of the method: as §1

[35] = molecular target: Neu5Ac(a2-3)Gal(b1-3)GlcNAc(b1-3)Gal(b1-3)GlcNAc
Summary of the method: as §1

[36] = molecular target: Neu5Ac(a2-3)Gal(b1-3)GlcNAc6S
Summary of the method: as §1

B1: Surfactant Protein D (Human); Neck + Carbohydrate Recognition Domain (NCRD) (Homo sapiens) (protein)
chain: MLLFLLSALVLLTQPLGYLEAEMKTYSHRTMPSACTLVMCSSVESGLPGRDRDGREGPRGEKGDPGLPGAAGQAGMPGQAGPVGPKGDNGSVGEPGPKGDTGPSGPPGPPGVPGPAGREGALGKQGNIGPQGKPGPKGEAGPKGEVGAPGMQGSAGARGLAGPKGERGVPGERGVPGNTGAAGSAGAMGPQGSPGARGPPGLKGDKGIPGDKGAKGESGLPDVASLRQQVEALQGQVQHLQAAFSQYKKVELFPNGQSVGEKIFKTAQFVKPFTEAQLLCTQAGGQLASPRSAAENAALQQLVVAKNEAAFLSMTDSKTEGKFTYPTGESLVYSNWAPGEPNDDGGSADCVEIFTNGKWNDRACGAKRLVVCEF
glycan array binding signal (z-score) (GalNAc(b1-3)GalNAc): -0.433
glycan array binding signal (z-score) (GalNAc(b1-4)GlcNAc): -0.131
glycan array binding signal (z-score) (Glc(a1-4)Glc): -0.277
glycan array binding signal (z-score) (Glc(a1-6)Glc(a1-6)Glc): -0.483
glycan array binding signal (z-score) (Glc(b1-4)Glc): -0.481
glycan array binding signal (z-score) (Glc(b1-6)Glc): -0.061
glycan array binding signal (z-score) (GlcA(b1-3)Gal): -0.025
glycan array binding signal (z-score) (GlcA(b1-3)GlcNAc): -0.461
glycan array binding signal (z-score) (GlcA(b1-6)Gal): 0.001
glycan array binding signal (z-score) [1]: -0.451
glycan array binding signal (z-score) [2]: -0.2
glycan array binding signal (z-score) [3]: -0.21
glycan array binding signal (z-score) [4]: -0.193
glycan array binding signal (z-score) (GlcNAc(b1-3)Gal): -0.071
glycan array binding signal (z-score) [5]: 0.038
glycan array binding signal (z-score) (GlcNAc(b1-3)Gal(b1-4)Glc): -0.453
glycan array binding signal (z-score) [6]: -0.336
glycan array binding signal (z-score) [7]: -0.163
glycan array binding signal (z-score) (GlcNAc(b1-3)GalNAc): 0.066
glycan array binding signal (z-score) (GlcNAc(b1-3)Man): -0.334
glycan array binding signal (z-score) [8]: 0.071
glycan array binding signal (z-score) [9]: -0.283
glycan array binding signal (z-score) [10]: -0.308
glycan array binding signal (z-score) [11]: -0.184
glycan array binding signal (z-score) (GlcNAc(b1-4)GlcNAc): -0.104
glycan array binding signal (z-score) [12]: 0.708
glycan array binding signal (z-score) [13]: -0.165
glycan array binding signal (z-score) [14]: -0.023
glycan array binding signal (z-score) [15]: 0.112
glycan array binding signal (z-score) [16]: -0.176
glycan array binding signal (z-score) (GlcNAc(b1-6)GalNAc): -0.036
glycan array binding signal (z-score) (GlcNAc3Prop(b1-4)GlcNAc): -0.18
glycan array binding signal (z-score) (Kdn(a2-3)Gal(b1-3)GlcNAc): -0.027
glycan array binding signal (z-score) (Kdn(a2-3)Gal(b1-4)GlcNAc): 0.165
glycan array binding signal (z-score) [17]: 1.11
glycan array binding signal (z-score) [18]: 0.579
glycan array binding signal (z-score) (Man(a1-2)Man(a1-3)Man): 1.58
glycan array binding signal (z-score) [19]: 6.34
glycan array binding signal (z-score) [20]: -0.461
glycan array binding signal (z-score) [21]: 0.006
glycan array binding signal (z-score) [22]: 10.1
glycan array binding signal (z-score) [23]: 5.19
glycan array binding signal (z-score) [24]: 1.25
glycan array binding signal (z-score) (Man(a1-3)[Man(a1-6)]Man): -0.421
glycan array binding signal (z-score) [25]: 10.2
glycan array binding signal (z-score) [26]: -0.448
glycan array binding signal (z-score) [27]: 0.008
glycan array binding signal (z-score) [28]: -0.257
glycan array binding signal (z-score) (Man(a1-6)Man): -0.148
glycan array binding signal (z-score) (Man(b1-4)GlcNAc): -0.234
glycan array binding signal (z-score) (Neu5Ac(a2-3)Gal): -0.038
glycan array binding signal (z-score) [29]: -0.217
glycan array binding signal (z-score) [30]: -0.219
glycan array binding signal (z-score) [31]: -0.2
glycan array binding signal (z-score) [32]: 0
glycan array binding signal (z-score) [33]: 0.272
glycan array binding signal (z-score) [34]: -0.335
glycan array binding signal (z-score) [35]: 0.031
glycan array binding signal (z-score) [36]: 0.016
